In the supplement of paper PMC12217912:
The other results are listed elsewhere or left out. The full chains were built here from the parent and the listed change. Values near 0.05 are background.

B1: TEV protease; numbered along this chain (parent)
chain: MGESLFKGPRDYNPISSSICHLTNESDGHTTSLYGIGFGPFIITNKHLFRRNNGTLVVQSLHGVFKVKDTTTLQQHLVDGRDMIIIRMPKDFPPFPQKLKFREPQREERICLVTTNFQTKSMSSMVSDTSCTFPSGDGIFWKHWIQTKDGQCGSPLVSTRDGFIVGIHSASNFTNTNNYFTSVPKNFMELLTNQEAQQWVSGWRLNADSVLWGGHKVFMVKPEEPFQPVKEATQL

Variants of: B1
Experiment: raw area under fraction-flipped curve 0-4 h after induction (AUC4h, not background-subtracted), DNA-recorder readout of cleavage of the substrate (dimensionless); higher = more cleavage of the substrate by the protease variant
Conditions: temperature: 34 °C; time window: 0-4 h after rhamnose induction
Method: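 In vivo DNA recorder in E. coli TOP10(DE3) ΔrhaA at 34 °C. Each TEVp single-site mutant (parent TEVp 0) is paired with a single-site variant of the 7-mer TEVs (canonical ENLYFQ|S). The substrate sits between flexible linkers in a Bxb1-sfGFP-TEVs-SsrA fusion, so cleavage stabilises Bxb1 and speeds flipping of a recombination array, read by NGS. The value is the raw area under the fraction-flipped curve over 0-4 h after rhamnose induction (AUC4h), with ≥20 reads per time point. It is not background-subtracted; inactive controls average about 0.047.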
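Note: Bxb1 expression induced with 0.2% (w/v) L-rhamnose at OD600 near 0.5, cultures sampled hourly, flipped fraction per protease–substrate barcode pair counted by paired-end Illumina sequencing.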

| Variant | area with substrate ENLYFAS | area with substrate ENLYFCS | area with substrate ENLYFES | area with substrate ENLYFFS | area with substrate ENLYFGS | area with substrate ENLYFIS | area with substrate ENLYFKS | area with substrate ENLYFLS | area with substrate ENLYFMS | area with substrate ENLYFNS | area with substrate ENLYFPS | area with substrate ENLYFSS | area with substrate ENLYFTS | area with substrate ENLYFVS | area with substrate ENLYFWS | area with substrate ENLYFYS | area with substrate ENLYFDS | area with substrate ENLYFHS | area with substrate ENLYFRS |
| --- | --- | --- | --- | --- | --- | --- | --- | --- | --- | --- | --- | --- | --- | --- | --- | --- | --- | --- | --- |
| S4G | 0.0534 | 0.0544 | 0.0702 | 0.0687 | 0.042 | 0.0563 | 0.0584 | 0.059 | 0.0561 | 0.071 | 0.0607 | 0.0623 | 0.0557 | 0.0516 | 0.0602 | 0.0691 |  |  |  |
| S4M | 0.0196 | 0.0629 | 0.0611 | 0.0752 | 0.0766 | 0.0533 | 0.0548 | 0.0442 | 0.0628 |  | 0.0588 | 0.0817 | 0.0664 | 0.0624 |  | 0.0932 | 0.0666 | 0.0427 | 0.0631 |
| S4R | 0.0594 | 0.0626 | 0.123 | 0.0728 | 0.0571 | 0.0514 | 0.0635 |  | 0.0689 | 0.0638 | 0.0532 | 0.0522 | 0.0586 |  | 0.041 |  | 0.0572 | 0.0642 | 0.0554 |
| F6H | 0.035 |  |  | 0.0719 |  | 0.0539 | 0.0727 |  |  |  | 0.058 |  | 0.0546 |  |  |  | 0.053 |  |  |
| R10C | 0.049 | 0.0577 |  | 0.0628 |  | 0.0512 | 0.0524 |  | 0.0691 |  | 0.0657 | 0.0245 | 0.0528 | 0.0398 | 0.0524 | 0.0524 | 0.0514 | 0.065 |  |
| R10G | 0.0532 | 0.0585 | 0.0596 | 0.0664 |  | 0.0563 | 0.071 |  | 0.0652 | 0.0562 | 0.0621 | 0.0586 | 0.0622 | 0.0429 | 0.0551 | 0.0636 |  | 0.031 | 0.0612 |
| R10V | 0.0557 | 0.0693 | 0.0648 |  | 0.0564 | 0.0583 | 0.0879 |  | 0.066 | 0.062 | 0.0642 | 0.0576 | 0.0708 | 0.0687 | 0.0561 | 0.0557 | 0.0676 |  |  |
| D11A | 0.0641 | 0.0677 | 0.0969 | 0.073 |  | 0.0608 | 0.0712 | 0.0658 | 0.0645 | 0.0547 | 0.0553 | 0.0608 |  | 0.0628 | 0.063 | 0.0561 | 0.0602 | 0.0774 |  |
| D11L | 0.0586 | 0.0622 | 0.0619 | 0.0721 | 0.0639 | 0.0611 | 0.0624 | 0.0597 | 0.0583 | 0.0669 | 0.0622 | 0.0639 | 0.0706 | 0.0593 | 0.0589 | 0.0595 | 0.0636 | 0.0581 |  |
| D11Q | 0.0587 | 0.0606 | 0.0503 | 0.0382 |  | 0.0584 | 0.0702 | 0.0578 | 0.0675 | 0.0709 | 0.0544 | 0.052 | 0.0749 | 0.0457 |  | 0.0602 |  | 0.058 | 0.0585 |
| Y12H | 0.0536 |  | 0.0652 | 0.0621 |  | 0.0759 | 0.0583 |  | 0.0663 | 0.061 | 0.0576 | 0.0484 | 0.0622 | 0.0648 | 0.0501 | 0.0478 | 0.0614 | 0.0568 | 0.0437 |
| Y12K | 0.0535 | 0.0645 | 0.0647 | 0.0654 | 0.0498 | 0.0488 | 0.0562 |  | 0.0663 | 0.0587 | 0.0536 | 0.0571 | 0.0602 |  | 0.0609 | 0.0597 | 0.0832 | 0.0624 | 0.0609 |
| Y12S | 0.0478 |  | 0.0645 | 0.0722 | 0.059 | 0.0625 |  | 0.0541 | 0.0595 |  | 0.0685 | 0.0656 | 0.0584 | 0.0561 | 0.0468 |  | 0.0739 | 0.0478 | 0.0505 |
| Y12W | 0.0641 | 0.0552 | 0.0702 | 0.057 |  | 0.0572 | 0.0751 | 0.0713 | 0.0711 | 0.0613 | 0.0621 | 0.0573 | 0.0615 |  | 0.0713 | 0.0529 | 0.0714 | 0.0604 | 0.063 |
| N13G | 0.0678 | 0.0623 | 0.0667 | 0.0699 | 0.0652 | 0.0635 | 0.0733 | 0.0676 | 0.0532 | 0.0618 | 0.0564 | 0.072 | 0.0458 | 0.0578 | 0.0554 | 0.0594 | 0.057 | 0.0568 | 0.0662 |
| N13K | 0.042 | 0.0649 | 0.0543 | 0.0611 | 0.0595 | 0.0568 | 0.0587 | 0.0629 | 0.0622 | 0.0624 | 0.0634 | 0.0605 | 0.0606 | 0.0509 | 0.0578 | 0.0603 | 0.0727 | 0.0615 | 0.0496 |
| N13R | 0.0547 | 0.0675 | 0.0585 | 0.0717 |  | 0.0687 | 0.0604 |  | 0.0622 | 0.0567 | 0.0647 | 0.0622 | 0.0559 | 0.0644 | 0.0586 |  |  | 0.0588 | 0.0588 |
| P14C | 0.0519 | 0.0719 | 0.0589 | 0.0695 | 0.0619 | 0.0598 | 0.0645 | 0.0553 | 0.0713 | 0.0612 | 0.0547 | 0.0562 | 0.0608 | 0.0745 |  | 0.0381 | 0.0594 | 0.0568 | 0.0579 |
| P14W | 0.058 | 0.0664 | 0.0549 | 0.0946 | 0.0577 | 0.0644 | 0.0683 | 0.0637 | 0.0649 | 0.0605 | 0.0669 |  | 0.0941 | 0.0711 | 0.0505 | 0.0561 | 0.0711 | 0.0609 | 0.0661 |
| I15C | 0.0605 | 0.0554 | 0.0673 | 0.0622 | 0.0591 | 0.0506 | 0.0537 |  | 0.0684 | 0.0646 | 0.0589 | 0.0479 | 0.0414 |  | 0.052 | 0.0367 | 0.0488 | 0.0509 | 0.0417 |
| S17D | 0.0528 | 0.061 | 0.0626 | 0.0637 | 0.0612 | 0.0565 | 0.0737 | 0.0642 | 0.0632 |  | 0.062 | 0.0681 | 0.0661 | 0.0577 | 0.0576 | 0.0679 |  | 0.0559 | 0.048 |
| S17F | 0.0541 | 0.0099 | 0.0687 | 0.0583 | 0.0435 | 0.0477 | 0.0601 | 0.0524 | 0.0646 | 0.0582 | 0.0539 | 0.051 | 0.055 | 0.0577 | 0.0511 | 0.0516 | 0.0643 | 0.0608 | 0.0683 |
